The source of these data is PubChem BioAssay AID179 (DTP/NCI, 2004).

The structures appear in SMILES notation. The source holds more than one record for some entries. Only these are listed. The source may hold further records. The records of an entry repeat one measurement (runs, samples, wells, individuals or studies). A tag in brackets gives the origin of a value. The letters are not those of the source and start again with each entry.

The test system of the test is CEM cells HIV-1 protection, formazan growth assay. Description: NCI AIDS Antiviral Assay. As to conditions: for IC50: measured here: growth of uninfected CEM cells. Put shortly:
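Five concentrations of each compound were applied to infected and uninfected human CEM cells. Protection from HIV-1 was judged from growth measured with a soluble formazan assay.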

`CC1(C)CNCC2(C)OCCCCCCCCCCOC3(C)CNCC(C)(C)[N-]C(=O)C(C)(CNCC(C)(C)[N-]C3=O)OCCCCCCCCCCOC(C)(CNCC(C)(C)[N-]C2=O)C(=O)[N-]1.[Ni+2].[Ni+2]`: the IC50 is 13.8 µM [sample A] and 182 µM [sample B]. Regarding `CCCCCCCCCCCCCCCCP(=O)(O)OP(=O)(O)OCC1OC(n2ccc(N)nc2=O)C(O)C1O` (stereo not drawn), the IC50 is 69.2 µM [sample A] and 575 nM [sample B]. With `COc1ccc(/C=C2/N=C(N/N=C\C(O)C(O)C(O)C(O)CO)NC2=O)cc1` (stereo not drawn), the EC50 is 4.79 µM [sample A] and > 200 µM [sample B].
